This note sets out measurements from PubChem BioAssay AID1508624 (National Center for Advancing Translational Sciences (NCATS), 2021).

Among all 48,000 compounds or so, about 120 (0.25%) were called active. Not shown: some 4% with an inconclusive outcome. Calls follow the shape of the dose curve; as a rule, active = well fitted activation curve with a large enough effect; inconclusive = small, poorly fitted or top-dose-only effect, or another doubt; inactive = no such curve, though single readings can be large or run the other way. The list shows a part of the results.

A short description of the experiment: Primary qHTS for Identification of Small Molecule Activators of Huntingtin-Antisense Promoter Activity. Also: nearly all actives have a fitted effect of over 55% in size. The settings on record: HEK293 HTT-AS promoter firefly luciferase reporter, 24 h; series mostly up to 57.5 µM; activity change, positive = activation: at the top concentration. In short, it runs like this: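 HEK293 Fluc reporter, 2,500 cells/well, 24 h pre-culture; cpds up to 57.5 uM final, 24 h 37 degrees C; Dual-Glo, 10 min RT; normalized vehicle = 0%, zero RLU = -100%.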
For orientation: qHTS replaces the single test concentration by a dilution series.
Regarding `COc1ccc(N(C(=O)COc2ccc(Br)cc2)S(=O)(=O)c2ccc(C)cc2)cc1`, the “activity change, positive = activation” value is inactive: -25.4%. `CCOC(=O)c1c(S(=O)(=O)N2CCCC(C(=O)Nc3ncccc3C)C2)c(C)n(C)c1C` (stereo not given): the “activity change, positive = activation” value is inactive: 0%. As to `O=C(OCc1ccccc1Cl)c1ccc(-c2nnn(Cc3ccccc3Cl)n2)cc1`, the “activity change, positive = activation” value is inactive: -4.81%. For `CC(C)(OCc1nn(Cc2ccccc2)c2ccccc12)C(=O)O` the value was inactive: -6.44%. With `Cc1ccc(S(=O)(=O)N[C@@H](Cc2ccccc2)C(=O)CCl)cc1`, the “activity change, positive = activation” value is inactive: -30.4%. The result for `COc1cc(/C=C/c2nc(C#N)c(NC(C)c3ccccc3)o2)cc(OC)c1OC` (stereo not given) reads inactive: -40.2%; that for `COc1cc(NCc2ccc3nc(N)nc(N)c3c2C)cc(OC)c1OC`, “inactive”; that for `O=C(CCCCn1c(=O)c2ccccc2n(CC(=O)Nc2cccc(F)c2)c1=O)NCc1ccccc1Cl`, inactive: -3.27%.

As to `CCOc1ccc(CNC(=O)Cn2c(=O)c3cccn3c3ccc(F)cc32)cc1OC`, the “activity change, positive = activation” value was inactive: -16.3%. For `Cc1ccc(CNC(=O)Cn2c(=O)n(-c3ccccc3)c(=O)c3c2c2cc(C)ccc2n3C)cc1` the value was inactive: -12.1%.

As to `CCCCN(C)CCNC(=O)Cn1ncc2c([nH]c3ccccc32)c1=O`, the “activity change, positive = activation” value was inactive: -4.05%. The result for `Cc1ccc(NC(=O)CCSc2nc(-c3ccc4c(c3)OCO4)cc(C(F)(F)F)n2)cc1` reads inactive: -18.6%. For `CCc1ccc(Oc2nc3c(C)cccn3c(=O)c2/C=C(\C#N)c2nc3ccccc3s2)cc1`, the “activity change, positive = activation” value is inactive: -3.62%. For `O=C(c1ccc(Cl)cc1)n1nc(-c2ccco2)nc1NCc1cccs1` the value was inactive: 33.3%. With `CCOC(=O)c1cccc(NC(=O)CCNS(=O)(=O)c2cccc3nonc23)c1`, the “activity change, positive = activation” value was inactive: -11.4%. Consider `CC1=C(c2ccc(Cl)cc2)S(=O)(=O)NC1=NCc1ccc(C)cc1`, for which the “activity change, positive = activation” value was inactive: -3.41%.

On to `O=C(CSc1nc2c(oc3ccccc32)c(=O)[nH]1)Nc1cccc(Cl)c1`, for which the “activity change, positive = activation” value is inactive: 11.4%. For `O=c1cc(CO)occ1O` the value was inactive: -1.36%; for `CN(C)c1cccc(C(=O)Nc2ccc(-c3nc4ccccc4s3)cc2)c1`, inactive: -3.48%.

Turning to `CC12CN3CC(C)(CN(C1)C3c1ccc(OCc3ccccc3)cc1)C2=O` (stereo not given), the “activity change, positive = activation” value is inactive: 19.3%. For `Cn1c(C(=O)N2CCC(C(=O)NCCc3ccc(S(N)(=O)=O)cc3)CC2)cc2sccc21` the value was inactive: 0.824%. For `CCOC(=O)c1ccc(NC(=O)c2cc3c(n(-c4ccc(C)cc4)c2=O)CC(C)(C)CC3=O)cc1` the value was inactive: -13.7%; for `Cc1ccc(CCNC(=O)c2ccc(CSCc3ccc(C)cc3)o2)cc1`, inactive: -39.7%.

As to `COc1ccc(-c2nc3scc(CCNS(=O)(=O)c4cccc(C(C)=O)c4)n3n2)cc1`, the “activity change, positive = activation” value is inactive: -18.4%.

Take `Cc1ccc(NC(=O)CSc2nnc(C)c(=O)[nH]2)cc1`: the “activity change, positive = activation” value is inactive: -2.66%. For `CCc1ccc(NC(=O)Cn2c(=O)ccc3cc(S(=O)(=O)N4CCCC4)ccc32)cc1` the value was inactive: -19%. For `O=C1Nc2cc(Cl)ccc2Oc2cc(Oc3ccccc3)ccc21` the value was inactive: -23.5%. The result for `COc1ccc(Cn2ccc3nc(C)c(C(=O)Nc4ccc(OC)cc4OC)cc3c2=O)cc1` reads inactive: -0.741%; that for `Cc1cc(C)c(S(=O)(=O)Nc2cccc(-c3cn4ccccc4n3)c2)c(C)c1`, inactive: 7.91%; that for `Cc1ccc(NC(=O)Cn2c(=O)n(CCc3ccccc3)c(=O)c3c4c(sc32)CCCC4)cc1C`, inactive: -7.3%.

With `Cc1ccc(C)c(CN2C(=O)c3ccccc3S(=O)c3ccc(C(=O)NCc4ccco4)cc32)c1` (stereo not given), the “activity change, positive = activation” value is inactive: -35.7%.

With `Cc1ccc(NC(=O)Cn2cc(S(=O)(=O)NC(C)C)c(S(=O)(=O)NC(C)C)c2)cc1Cl`, the “activity change, positive = activation” value was inactive: -6.87%. The result for `COc1ccc(Oc2nc3c(c(=O)n(Cc4ccccc4Cl)c(=O)n3C)n2C)cc1` reads inactive: 1.17% [at 11.5 µM, percent change from vehicle, -100% = no light]; that for `Cc1cc2ccccc2n1-c1ccc(C(=O)N2CCC(C(=O)NCc3ccc(F)cc3)CC2)s1`, inactive: -41.8%; that for `COC(=O)c1c(SCC(=O)Nc2ccccc2OC)[nH]c2ccccc2c1=O`, inactive: 5.9%. As to `COc1ccc(CNC(=O)Cn2ccc3cc(S(=O)(=O)N4CCCCCC4)ccc32)c(OC)c1`, the “activity change, positive = activation” value is inactive: -19.9%. The result for `Cc1ccc(N2CC(NC(=O)/C=C\c3ccc4c(c3)OCO4)CC2=O)cc1` (stereo not given) reads inactive: -17.3%; that for `O=C(C1CC1)N1CCc2cc(Br)cc(S(=O)(=O)N3CCN(c4ccccc4F)CC3)c21`, inactive: -14.5%. For `COc1cccc(NC(=O)c2ccc(CNS(=O)(=O)c3ccc4c(c3)C(C)(C)C(=O)N4C)cc2)c1` the value was inactive: -37.9%; for `O=C(/C=C/c1ccco1)Nc1ccc(Cl)c(-c2nc3cc(Cl)ccc3o2)c1`, inactive: -11.8%; for `Cc1c(Cl)cccc1NC(=O)CSc1cc(-c2ccccc2)ncn1`, inactive: -11.9%. The result for `Cc1ccc(NC(=O)C2CCN(c3nn4c(=O)cc(C)nc4s3)CC2)cc1` reads inactive: -6.25%; that for `CC(C)n1c(=O)c2oc3ccccc3c2n(Cc2ccccc2F)c1=O`, inactive: -30.1%. Take `Cc1ccc(-c2nnc(Nc3ccc(O)cc3)c3ccccc23)cc1S(=O)(=O)NCC1CCCO1` (stereo not given): the “activity change, positive = activation” value was inactive: -49.3%. For `Cc1ccc(S(=O)(=O)Nc2ccc3c(c2)c(C(=O)OC(C)C)c(C)n3S(=O)(=O)c2ccc(C)cc2)cc1` the value was inactive: -23.4%; for `COc1ccc(S(=O)(=O)NCCc2cn3ccsc3n2)cc1`, inactive: -12.4%. Turning to `CC(=O)c1ccc(NC(=O)c2ccc(CN3C(=O)CCn4nc(C)cc43)cc2)cc1`, the “activity change, positive = activation” value was inactive: 7.86%. For `O=S(=O)(Nc1ccc(Br)cc1)c1ccc2nc(-c3ccccc3)[nH]c2c1` the value was inactive: -34.7%; for `Cc1ccc(CCNC(=O)CN2CCN(Cc3ccc(Cl)cc3)C2=O)cc1`, inactive: -7.03%; for `O=C(CCC1N=C2c3ccccc3N=C(SCc3cccc(F)c3)N2C1=O)NCc1ccc(F)cc1` (stereo not given), inactive: 1.51%. For `O=C(Nc1ccccc1Br)N1CCN2CCCCC2C1` (stereo not given) the value was inactive: -2.75%; for `Cc1cccc(-c2[nH]c(C(C)(C)C)nc2-c2ccc3c(c2)OCO3)n1`, inactive: -30.2%; for `Cc1nn2c(=O)cc(COC(=O)c3ccc(F)cc3)nc2s1`, inactive: 14.1%. For `NC1CCN(c2cccc(Cl)n2)CC1` the value was inactive: 3.98%; for `CCc1ccc(NC(=O)CN2C(=O)CCSc3ccc(S(=O)(=O)N4CCCC4)cc32)cc1`, inactive: -9.47%; for `COc1ccc(C(=O)c2cn(Cc3cccc(C)c3)c3cc4c(cc3c2=O)OCCO4)cc1OC`, inactive: -18.1%. As for `COc1ccc(CCNC(=O)Cn2ccc3cc(S(=O)(=O)N4CCCCC4)ccc32)cc1OC`, the “activity change, positive = activation” value is inactive: -35.8%. For the compound `CCN(CC)CCNC(=O)Cn1ncc2c3ccccc3n(Cc3ccccc3C)c2c1=O`, the “activity change, positive = activation” value was inactive: -15.6%. The result for `Cn1nnnc1SCCCNCc1ccccc1OCc1ccccc1F` reads inactive: -20.6%; that for `COC(=O)c1ccccc1NC(=O)c1cc(=O)c2ccc(C)c(C)c2o1`, inactive: 9.78% [at 11.5 µM, percent change from vehicle, -100% = no light].
